# According to PubChem BioAssay AID1963576 (National Center for Advancing Translational Sciences (NCATS), 2024):
# The campaign covered roughly 46,000 compounds. About 60 (0.1%) were called active. Another 3% or so got no clear call; they are omitted. Calls come from the whole dose curve; as a rule, active = well fitted inhibition curve with a large enough effect; inconclusive = small, poorly fitted or top-dose-only effect; inactive = no such curve, though single readings can be large or run the other way. This is one part of the list.
# Assay: Primary qHTS assay for Inhibitors of ovarian cancer metastasis using an organotypic tumor microenvironment (TME) model.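 For activity change, negative = inhibition: plate controls were DMSO wells for no effect and tomatine positive control wells for full effect.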 Note: nearly all actives have a fitted effect of over 65% in size.
# Conditions: SKOV3ip1-GFP adhesion/invasion on 3D omental model, fluorescence; series mostly up to 45.8 µM; activity change, negative = inhibition: at the top concentration
# Summary of the method: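 A 3D layer of primary human omental fibroblasts, mesothelial cells, fibronectin and collagen I, grown 48 hr, received SKOV3ip1-GFP cells in serum-free medium plus compounds at 0.36-46 umol/L. After 2 hr RT and 16 hr 37 C, fixed adherent GFP cells were counted; normalized to DMSO and tomatine.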
Structure (SMILES),outcome,"activity change, negative = inhibition"
Cn1c(=O)c2c(-c3ccccc3Cl)n(Cc3ccc(Cl)cc3)cc2n(C)c1=O,inactive,–
CCC1CN(S(=O)(=O)c2ccc3c(c2)NC(=O)CC(=O)N3)c2cc(Cl)ccc2O1 (stereo not drawn),–,inactive: 0.292%
COc1ccc(N(C(=O)c2ccc(Cl)cc2)S(=O)(=O)c2ccc(C)cc2)cc1,inactive,–
COc1ccc(S(=O)(=O)n2nc(-c3ccco3)nc2NCc2ccc(OC)c(OC)c2)cc1,–,inactive: 13%
COc1ccccc1Cc1nc2ccccc2nc1SCC(=O)Nc1ccccc1C(F)(F)F,–,inactive: -39.2%
COc1ccc(-c2nc3c(C#N)c[nH]n3c2NC2CCCC2)cc1,–,inactive: 1.18%
CCOc1ccc(CNCc2c(C(=O)O)n(Cc3ccc(OC)cc3)c3ccccc23)cc1,inactive,–
Cc1ccc(N2CC(c3nnc(Cc4ccccc4Cl)o3)CC2=O)cc1 (stereo not drawn),–,inactive: 2.12%
CCc1nnc2c(NCc3cccc(OC)c3)nc3ccccc3n12,–,inactive: 17.4%
COc1cccc(-c2[nH]c3c(c2-c2c(-n4cccc4)n(C)c(=O)[nH]c2=O)c(=O)[nH]c(=O)n3C)c1,–,inactive: 7.96%
CN(C)c1ccc(CNC(=O)CCn2c(=O)c3cccn3c3ccc(F)cc32)cc1,–,inactive: -7.43%
COCCOC(=O)C1=C(C)N=C2SCCC(=O)N2C1c1ccc(OCc2ccccc2)c(OC)c1 (stereo not drawn),–,inactive: 10.8%
COCCCNc1nc2c(c(=O)n(C)c(=O)n2C)n1Cc1ccccc1,–,inactive: -7.13%
COc1ccccc1N1CCN(c2cc(C)nc3c(-c4ccc(Cl)cc4)c(C)nn23)CC1,–,inactive: -11.2%
O=C(NCc1ccc2c(c1)CCN2C(=O)c1ccccc1)c1ccc(Br)o1,–,inactive: -6.16%
Cn1c(=O)c2c(ncn2C)n(C)c1=O,–,inactive: -6.79%
Cc1ccc(NS(=O)(=O)c2ccc3c(c2)NC(=O)CCS3)cc1F,inactive,–
CCN(CC)S(=O)(=O)c1ccc2c(c1)c(=O)c(C(=O)NCc1ccccc1OC)cn2C,–,inactive: 39.3%
Cc1ccc(C(=O)N2CCc3cc(CNC(=O)c4ccnn4C)ccc32)cc1,–,inactive: -12.8%
CCOc1ccccc1C(=O)Nc1nnc(COC)s1,–,inactive: -0.656%
CCOc1ccc(C(=O)N2CCC(c3ccncc3)CC2)cc1,–,inactive: 1.39%
CC[C@@H]1C(=O)N(C)c2cnc(Nc3ccc(C(=O)NC4CCN(C)CC4)cc3OC)nc2N1C1CCCC1,–,inactive: -17.3%
COC(=O)c1ccccc1NC(=O)Cn1nc(C(F)(F)F)c2c1CCCC2,inactive,–
CCOC(=O)c1cc(OC(=O)c2cccc(Cl)c2)n(-c2ccccc2)n1,–,inactive: -0.0832%

Structure (SMILES),outcome,"activity change, negative = inhibition"
Cc1ccc(C)c(N2CCN(C(=O)Cn3c(C)c4cnn(-c5ccccc5)c(=O)c4c3C)CC2)c1,–,inactive: 40.2%
COc1cc(NC(=O)Cn2c(=O)nc(-c3ccccc3F)c3cc(Cl)ccc32)cc(OC)c1,inactive,–
CC1CCCCN1c1nc(-c2ccc(C(C)(C)C)cc2)nc2ccccc12 (stereo not drawn),inactive,–
CCN(C(=O)Cn1cc(C(=O)c2ccc(F)cc2)c(=O)c2ccc(C)nc21)c1cccc(C)c1,–,inactive: -16%
COc1ccc(OC)c(NC(=O)CCc2c(C)nc3c(c(C)nn3C(C)(C)C)c2C)c1,–,inactive: 5.62%
CC(C)c1ccc2occ(CC(=O)Nc3cccc(C(F)(F)F)c3)c2c1,–,inactive: -12.5%
Cc1cc(C)c2c(CC(=O)Nc3c(C(=O)c4ccc(F)cc4)oc4ccccc34)coc2c1,–,inactive: 0.735%
Cc1ccc2c(c1)CC(C)N2S(=O)(=O)c1nnc(NC(=O)CC(C)C)s1 (stereo not drawn),–,inactive: -7.54%
CCCCOc1ccc(CNC(=O)c2cnc3sc(N4CCC(C)CC4)nn3c2=O)cc1,–,inactive: -4.47%
COc1cccc(-n2c(-c3ccc(C)cc3)cc3c2CC(C)(C)CC3=O)c1,inactive,–
CCC1CN(C(=O)N2CCC(C(=O)NCc3ccco3)CC2)c2cc(C)ccc2O1 (stereo not drawn),inactive,–
CC(C)c1nc2ccc(C(=O)NCCCN3CCN(c4ccc(F)cc4)CC3)cc2o1,–,inactive: 2.62%
COc1ccccc1CNC(=O)CCc1c(C)nn(-c2ccc(N3CCCC3)nn2)c1C,–,inactive: -7.81%
O=C(NCC1CCN(Cc2ccccc2Cl)CC1)c1cc2ccc3cccnc3c2[nH]1,inactive,–
Cc1cc(NC(=O)CSc2nc3c([nH]c4ccccc43)c(=O)n2-c2ccc(Cl)cc2)no1,–,inactive: 17.8%
Cc1cc(=O)n(Cc2ccccc2Cl)c2c1c(C)nn2-c1ccccc1,–,inactive: -4.14%
COc1ccccc1C(=O)Nc1ccc(OCc2cc(=O)n3cccc(C)c3n2)cc1,–,inactive: -13.4%
CCc1ccc(NC(=O)c2ccc3c(O)c(S(=O)(=O)c4ccccc4)c(=O)[nH]c3c2)cc1,–,inactive: 2.11%
Cc1c(NC(=O)c2ccc(Cl)cc2)cc(C(C)C)c(O)c1S(=O)(=O)c1ccccc1,–,inactive: -5.65%
CCn1c2c(c(=O)n3ncc(C(=O)Nc4ccc(F)cc4Cl)c13)CN(Cc1ccc(OC)cc1)CC2,–,inactive: 4.13%
CCOc1ccc(NC(=O)c2oc(=O)c3ccccc3c2-c2ccc(C)cc2)cc1,–,inactive: 1.81%
Cc1cccc(OCc2nnc(-c3ccccc3)o2)c1,–,inactive: 9.42%
CCN1CCN(C(=O)c2ccc3c(c2)N(Cc2ccc(F)cc2)C(=O)c2ccccc2S3(=O)=O)CC1,–,inactive: 5.22%
O=c1oc2ccc(F)cc2cc1-c1nc(-c2cccs2)no1,–,inactive: 5.78%
